Data on one molecule can be found in patent US10781262B2, “Combination therapy of T cell activating bispecific antigen binding molecules and PD-1 axis binding antagonists” (Hoffmann-La Roche Inc., priority 2014, dated 2020).

The subject of this data set is CD4^+ T cells and CD8^+ T cells in whole blood. Put plainly: T cell activation in whole blood. Format: cell-based. The conditions noted are these: 24 h, absence of FolR1 expressing tumor cells. An excerpt: FIGS. 9A-D depict graphs summarizing activation marker upregulation in whole blood.
DP47 TCB was included as negative control.

B1: Mov19 FolR1 TCB: reference FolR1/CD3 T-cell bispecific with Mov19 binder (antibody)
heavy 1: QVQLQQSGAELVKPGASVKISCKASGYSFTGYFMNWVKQSHGKSLEWIGRIHPYDGDTFYNQNFKDKATLTVDKSSNTAHMELLSLTSEDFAVYYCTRYDGSRAMDYWGQGTTVTVSSASTKGPSVFPLAPSSKSTSGGTAALGCLVKDYFPEPVTVSWNSGALTSGVHTFPAVLQSSGLYSLSSVVTVPSSSLGTQTYICNVNHKPSNTKVDKKVEPKSCDGGGGSGGGGSEVQLVESGGGLVQPKGSLKLSCAASGFTFNTYAMNWVRQAPGKGLEWVARIRSKYNNYATYYADSVKDRFTISRDDSQSILYLQMNNLKTEDTAMYYCVRHGNFGNSYVSWFAYWGQGTLVTVSAASVAAPSVFIFPPSDEQLKSGTASVVCLLNNFYPREAKVQWKVDNALQSGNSQESVTEQDSKDSTYSLSSTLTLSKADYEKHKVYACEVTHQGLSSPVTKSFNRGE[in this place human IgG1 Fc with changes]
heavy 2: QVQLQQSGAELVKPGASVKISCKASGYSFTGYFMNWVKQSHGKSLEWIGRIHPYDGDTFYNQNFKDKATLTVDKSSNTAHMELLSLTSEDFAVYYCTRYDGSRAMDYWGQGTTVTVSSASTKGPSVFPLAPSSKSTSGGTAALGCLVKDYFPEPVTVSWNSGALTSGVHTFPAVLQSSGLYSLSSVVTVPSSSLGTQTYICNVNHKPSNTKVDKKVEPKSCDKTHTCPPCPAPEAAGGPSVFLFPPKPKDTLMISRTPEVTCVVVDVSHEDPEVKFNWYVDGVEVHNAKTKPREEQYNSTYRVVSVLTVLHQDWLNGKEYKCKVSNKALGAPIEKTISKAKGQPREPQVCTLPPSRDELTKNQVSLSCAVKGFYPSDIAVEWESNGQPENNYKTTPPVLDSDGSFFLVSKLTVDKSRWQQGNVFSCSVMHEALHNHYTQKSLSLSPGK
light: DIELTQSPASLAVSLGQRAIISCKASQSVSFAGTSLMHWYHQKPGQQPKLLIYRASNLEAGVPTRFSGSGSKTDFTLNIHPVEEEDAATYYCQQSREYPYTFGGGTKLEIKRTVAAPSVFIFPPSDEQLKSGTASVVCLLNNFYPREAKVQWKVDNALQSGNSQESVTEQDSKDSTYSLSSTLTLSKADYEKHKVYACEVTHQGLSSPVTKSFNRGEC
modifications: left off: another chain or arm of the molecule; small tags and cut ends
For B1, the “upregulation of CD25 and CD69 on CD4^+ and CD8^+ T cells in whole blood” value is “No activation of T cells”.
